Test results published in PMC5700166.
The list shows a part of the results, in another mix than the full data. The list includes weakly bound sequences.

Key:
Assay in all cases: protein-binding microarray (PBM)
Details in all cases: PBM: ~300 nM protein, 6 mM HEPES pH 7.8, 80 mM KCl, 0.5 mM EDTA, 0.5 mM EGTA, 6% glycerol, 35 ng/ul poly-dIdC, 1% milk, 1 h, room temperature; Ap Aiptasia and Nv Nematostella (sea anemones) / Co Capsaspora / Aq Amphimedon (sponge) / Dm Drosophila / Hu human; RHD is the Rel homology domain; high values mean tight binding; most listed sequences are background and not binding sites; double strand, one strand shown
[1] = molecular target: T1, GST-Ap-NF-kB RHD (UniProt A0A913YAJ5)
T1 sequence: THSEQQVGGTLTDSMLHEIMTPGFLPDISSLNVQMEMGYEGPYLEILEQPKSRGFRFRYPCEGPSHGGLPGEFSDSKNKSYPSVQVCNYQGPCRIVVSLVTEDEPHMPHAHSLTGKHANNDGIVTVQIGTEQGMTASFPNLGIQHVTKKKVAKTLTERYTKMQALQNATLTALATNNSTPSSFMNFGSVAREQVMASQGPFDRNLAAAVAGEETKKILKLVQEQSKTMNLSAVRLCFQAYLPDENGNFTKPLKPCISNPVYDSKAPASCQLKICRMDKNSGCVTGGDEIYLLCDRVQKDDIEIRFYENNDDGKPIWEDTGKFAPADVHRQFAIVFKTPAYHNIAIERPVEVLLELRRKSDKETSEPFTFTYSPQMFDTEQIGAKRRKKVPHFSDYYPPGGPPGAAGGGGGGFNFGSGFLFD

[2] = molecular target: T2, GST-Nv-NF-kB (Cys allele) (UniProt E5G601)
T2 sequence: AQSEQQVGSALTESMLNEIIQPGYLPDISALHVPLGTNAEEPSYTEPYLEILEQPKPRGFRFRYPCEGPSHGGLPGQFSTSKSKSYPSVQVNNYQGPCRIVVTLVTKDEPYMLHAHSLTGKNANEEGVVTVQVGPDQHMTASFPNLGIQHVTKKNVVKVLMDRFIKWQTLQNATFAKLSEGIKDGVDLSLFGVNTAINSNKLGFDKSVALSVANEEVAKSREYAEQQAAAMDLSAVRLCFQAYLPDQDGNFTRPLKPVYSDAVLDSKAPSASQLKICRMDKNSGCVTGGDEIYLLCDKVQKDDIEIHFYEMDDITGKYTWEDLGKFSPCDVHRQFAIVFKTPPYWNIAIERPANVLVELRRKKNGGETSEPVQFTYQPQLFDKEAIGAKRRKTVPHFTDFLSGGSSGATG

[3] = molecular target: T3, GST-Dm-Relish (UniProt Q94527)
T3 sequence: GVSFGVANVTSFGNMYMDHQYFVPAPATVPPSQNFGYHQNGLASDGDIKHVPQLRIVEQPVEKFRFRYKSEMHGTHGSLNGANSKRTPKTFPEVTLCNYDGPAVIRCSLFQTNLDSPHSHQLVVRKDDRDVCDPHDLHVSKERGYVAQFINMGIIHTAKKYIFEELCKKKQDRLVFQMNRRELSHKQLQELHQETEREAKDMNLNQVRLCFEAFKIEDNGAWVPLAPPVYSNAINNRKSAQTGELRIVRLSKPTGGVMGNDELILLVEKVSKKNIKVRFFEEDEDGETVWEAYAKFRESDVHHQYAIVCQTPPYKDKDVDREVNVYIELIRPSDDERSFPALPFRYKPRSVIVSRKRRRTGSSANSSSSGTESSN

[4] = molecular target: T4, GST-Aq-NF-kB (UniProt A9Y5G7)
T4 sequence: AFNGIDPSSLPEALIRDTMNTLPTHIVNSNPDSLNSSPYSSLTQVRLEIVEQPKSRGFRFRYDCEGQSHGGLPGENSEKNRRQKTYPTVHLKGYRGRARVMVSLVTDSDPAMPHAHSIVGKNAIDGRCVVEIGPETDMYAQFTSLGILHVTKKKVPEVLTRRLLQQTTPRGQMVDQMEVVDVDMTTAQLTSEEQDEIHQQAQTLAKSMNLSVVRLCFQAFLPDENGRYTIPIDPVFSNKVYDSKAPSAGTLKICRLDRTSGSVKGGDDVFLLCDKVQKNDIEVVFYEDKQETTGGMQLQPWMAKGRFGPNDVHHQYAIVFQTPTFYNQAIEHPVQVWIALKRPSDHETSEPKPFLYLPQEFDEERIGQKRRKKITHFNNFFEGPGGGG

Sequence	binding signal [1]	binding signal [2]	binding signal [3]	binding signal [4]
CCGATTAACATCAGGGAAGTCCCTGATGTTAATCGGGTCTTGATTCGCTTGACGCTGCTG	9.31 z-score	11.7 z-score	10.4 z-score	10.2 z-score
CCGATTAACATCAACCAATTCCCTGATGTTAATCGGGTCTTGATTCGCTTGACGCTGCTG	2.49 z-score	3.94 z-score	0.721 z-score	3.16 z-score
CCGATTAACATCAGGGTGTAGTTTGATGTTAATCGGGTCTTGATTCGCTTGACGCTGCTG	0.0653 z-score	0.134 z-score	1.07 z-score	0.692 z-score
CCGATTAACATCAGGGATTCCCCTGATGTTAATCGGGTCTTGATTCGCTTGACGCTGCTG	13.9 z-score	13.2 z-score	11.2 z-score	11.5 z-score
CCGATTAACATCAGGCTTTTCCCTGATGTTAATCGGGTCTTGATTCGCTTGACGCTGCTG	2.62 z-score	4.54 z-score	2.3 z-score	6.49 z-score
CCGATTAACATCAGGGCTTCCCCTGATGTTAATCGGGTCTTGATTCGCTTGACGCTGCTG	9.17 z-score	10.8 z-score	10.4 z-score	9.48 z-score
CCGATTAACATCAGAAGATCCCCTGATGTTAATCGGGTCTTGATTCGCTTGACGCTGCTG	7.16 z-score	6.92 z-score	7.44 z-score	6.44 z-score
CCGATTAACATCACCCGCTTTATTGATGTTAATCGGGTCTTGATTCGCTTGACGCTGCTG	0.642 z-score	0.262 z-score	0.846 z-score	0.345 z-score
CCGATTAACATCAAAAAGTCCCCTGATGTTAATCGGGTCTTGATTCGCTTGACGCTGCTG	9.45 z-score	10.8 z-score	10 z-score	8.93 z-score
CCGATTAACATCAGGGCAAAAAATGATGTTAATCGGGTCTTGATTCGCTTGACGCTGCTG	0.124 z-score	0.887 z-score	0.461 z-score	0.273 z-score
CCGATTAACATCAGGGAGCGGTTTGATGTTAATCGGGTCTTGATTCGCTTGACGCTGCTG	0.895 z-score	0.133 z-score	-0.0301 z-score	0.986 z-score
CCGATTAACATCAAAAATCCCCCTGATGTTAATCGGGTCTTGATTCGCTTGACGCTGCTG	11.1 z-score	11.4 z-score	10.1 z-score	9.28 z-score
CCGATTAACATCATCAGGGGAAATGATGTTAATCGGGTCTTGATTCGCTTGACGCTGCTG	5.62 z-score	7.05 z-score	2.39 z-score	4.58 z-score
CCGATTAACATCAAAAAACCCCCTGATGTTAATCGGGTCTTGATTCGCTTGACGCTGCTG	12.1 z-score	11.4 z-score	11.4 z-score	9.82 z-score
CCGATTAACATCAGGGAACCCCCTGATGTTAATCGGGTCTTGATTCGCTTGACGCTGCTG	13 z-score	11.8 z-score	11 z-score	11.1 z-score
CCGATTAACATCAGGGGGACCCCTGATGTTAATCGGGTCTTGATTCGCTTGACGCTGCTG	8.92 z-score	5.39 z-score	9.89 z-score	8.54 z-score
CCGATTAACATCAGGAAATCCCCTGATGTTAATCGGGTCTTGATTCGCTTGACGCTGCTG	10.8 z-score	12.1 z-score	10.3 z-score	10.9 z-score
CCGATTAACATCAGGTCACCCCATGATGTTAATCGGGTCTTGATTCGCTTGACGCTGCTG	0.838 z-score	0.399 z-score	0.832 z-score	0.454 z-score
CCGATTAACATCAGGAAGGGCGGTGATGTTAATCGGGTCTTGATTCGCTTGACGCTGCTG	1.05 z-score	0.22 z-score	0.62 z-score	0.641 z-score
CCGATTAACATCACCCAAAGTTTTGATGTTAATCGGGTCTTGATTCGCTTGACGCTGCTG	-0.134 z-score	-0.204 z-score	0.979 z-score	0.601 z-score
CCGATTAACATCACAATAACGGGTGATGTTAATCGGGTCTTGATTCGCTTGACGCTGCTG	-0.151 z-score	0.441 z-score	1.63 z-score	0.391 z-score
CCGATTAACATCAGGATTCCCCCTGATGTTAATCGGGTCTTGATTCGCTTGACGCTGCTG	11.3 z-score	10.5 z-score	10.2 z-score	8.67 z-score
CCGATTAACATCAGGGAAGCCCCTGATGTTAATCGGGTCTTGATTCGCTTGACGCTGCTG	9.42 z-score	10.8 z-score	10.3 z-score	9.75 z-score
CCGATTAACATCACACCCGCAACTGATGTTAATCGGGTCTTGATTCGCTTGACGCTGCTG	0.21 z-score	-0.118 z-score	0.649 z-score	0.474 z-score
CCGATTAACATCAGGGATTTTTATGATGTTAATCGGGTCTTGATTCGCTTGACGCTGCTG	5.66 z-score	6.48 z-score	7.93 z-score	6.66 z-score
CCGATTAACATCAGCCATATTTGTGATGTTAATCGGGTCTTGATTCGCTTGACGCTGCTG	-0.0115 z-score	-0.207 z-score	0.452 z-score	-0.369 z-score
CCGATTAACATCAATTCCCAACCTGATGTTAATCGGGTCTTGATTCGCTTGACGCTGCTG	0.86 z-score	2.15 z-score	0.662 z-score	0.906 z-score
CCGATTAACATCAGGGAAACCCCTGATGTTAATCGGGTCTTGATTCGCTTGACGCTGCTG	10.6 z-score	11.4 z-score	9.95 z-score	10 z-score
